# According to PubChem BioAssay AID1347073 (National Center for Advancing Translational Sciences (NCATS), 2019):
# Among all 45,000 compounds or so, about 200 (0.44%) were called active. Not shown: some 7% with an inconclusive outcome. Calls come from the whole dose curve; as a rule, active = well fitted activation curve with a large enough effect; inconclusive = small, poorly fitted or top-dose-only effect; inactive = no such curve, though single readings can be large or run the other way. Some of the results follow.
# Test: qHTS of TDP-43 Inhibitors: NCGC Sytravon Library Screen; note: 0% is about no effect; nearly all actives have a fitted effect of over 55% in size
# Conditions: yeast TDP-43 toxicity rescue, BacTiter-Glo growth, 24 h; series mostly up to 46.1 µM; growth rescue (activation): at the top concentration
# Summary of the method: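 TDP-43-expressing yeast, pregrown in raffinose, seeded at OD600 0.02 in galactose medium with compound for 24 hr at 30 deg C. Growth read by BacTiter-Glo luminescence, so rescue of toxicity appears as activation.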
row,Structure (SMILES),growth rescue (activation)
1,CCn1cc2nc(SCC(=O)Nc3ccc(OC)cc3OC)n(Cc3ccc(OC)cc3)c(=O)c2n1,inactive: 7.91%
2,CCCC(=O)N1CCC1(C)C(=O)NS(=O)(=O)c1ccc(F)cc1F (stereo not given),inactive: -2.46%
3,COCCNC(=O)C1CCCN(C(=O)C2(c3ccc(Cl)cc3)CCCC2)CC1 (stereo not given),inactive: 1.63%
4,Cc1nc2cc(-c3ccc(Cl)cc3)nn2c(NCCN(C)C)c1C,inactive: 1.99%
5,COc1ccc(CCNC(=O)CN2C(=O)CCSc3ccccc32)c(OC)c1,inactive: 5.3%
6,N#CCC(=O)Nc1ccc(C(=O)NNC(=S)NC2CC2)cc1,inactive: 0.0567%
7,O=C(COc1ccc(S(=O)(=O)N2CCCCC2)cc1)NCC1CCCO1 (stereo not given),inactive: -2.43%
8,Cc1ccnc(Cc2ccccc2)n1,inactive: 1.62%
9,O=C(C1CCCN(S(=O)(=O)c2ccc(F)cc2)C1)N1CCCC1 (stereo not given),inactive: 23.2%
10,CC(C)(C)c1ccc(C(=O)N2CCC(C(=O)NC3CCCCCC3)CC2)cc1,inactive: 24.8%
11,Cc1ccc(NC2=NCC(Cc3ccc(Br)cc3)S2)cc1 (stereo not given),inactive: 8.16%
12,C/C(CCc1ccc2c(c1)OCO2)=N\NC(=O)c1ccccc1Br,inactive: 5.57%
13,O=C(/C=C/c1ccccc1)OCCCN=C1NS(=O)(=O)c2ccccc21,inactive: -2.48%
14,CCOc1ccc(NC(=O)N2CC=C(n3c(=O)[nH]c4ccccc43)CC2)cc1,inactive: 14.8%
15,COc1ccccc1NC(=O)CN1CCN(C(=O)C2CCCO2)CC1 (stereo not given),inactive: 2%
16,CSc1nc2ccccc2nc1N(C)S(=O)(=O)c1ccc(C)cc1,inactive: -7.43%
17,O=c1[nH]nc(-c2ccccc2)c2ccccc12,inactive: 10.6%
18,CNC(=O)c1[nH]nc2c1CCc1cc(OC)ccc1-2,inactive: 6.99%
19,CC1(C(=O)NS(=O)(=O)Cc2cccc(Cl)c2)CCN1C(=O)C1(c2ccc(Cl)cc2)CCC1 (stereo not given),inactive: -12.4%
20,Cc1ccc(C(=O)NCCc2ccccn2)cc1S(=O)(=O)N1CCOCC1,inactive: 9.58%
21,COc1ccccc1NC(=O)c1nc(S(=O)(=O)Cc2ccccc2)ncc1Cl,inactive: 12.9%
22,O=C(NCCCl)Nc1ccccc1NS(=O)(=O)c1cccs1,inactive: 1.73%

row,Structure (SMILES),growth rescue (activation)
1,Cc1ccc(S(=O)(=O)Nc2cc(C(F)(F)F)ccc2N2CCOCC2)c(C)c1,inactive: -36.9%
2,CN(C)Cc1csc(NC(=O)Nc2ccccc2-c2ccccc2)n1,inactive: 6.31%
3,CN(CC(=O)N1CCCC1)S(=O)(=O)c1cccc(Cl)c1,inactive: 0.323%
4,O=C1NC(=S)N/C1=C/C=C/c1ccccc1,inactive: 2.66%
5,COc1ccc(CCn2c(NN=C3CCCCC3)nc3c2c(=O)[nH]c(=O)n3C)cc1,inactive: 1.7%
6,CC(=C/c1ccco1)/C=N/NC(=O)c1nnn(-c2nonc2N)c1CN(C)C,inactive: 6.15%
7,COc1ccccc1C(=O)ON=C1c2ccccc2-c2ccccc21,inactive: -2.69%
8,CCOc1ccc(CC(=O)NNC(=S)NC2CCCCC2)cc1OCC,inactive: -13.6%
9,CCCCOC(=O)N1CCOCCOCCOCCOCC1,inactive: 6.36%
10,O=C(CSc1nc(-c2ccco2)cc(C(F)(F)F)n1)NN1CCOCC1,inactive: 6.35%
11,COc1ccc(C(=O)Nc2ccc(NC(=O)c3ccccc3F)cn2)cc1,inactive: 0.315%
12,CCOc1ccccc1/C=C/c1nc2ccccc2[nH]c1=O,inactive: 3.37%
13,COc1ccccc1-c1nnc(SCC(=O)NC2CCCCC2)n1C,inactive: 6.31%
14,Cn1c(N)nc2nc(CCc3ccccc3)c(=O)[nH]c2c1=O,inactive: -3.73%
15,Cc1nn(-c2ccccc2)c(C)c1S(=O)(=O)O,inactive: -2.35%
16,O=C(COC(=O)c1ccc(F)cc1)Nc1nc2ccc([N+](=O)[O-])cc2s1,inactive: -12.3%
17,COC(=O)COc1ccc(NC(=O)c2ccco2)cc1,inactive: 1.18%
18,CCc1ccc(C(C)NC(=O)Cc2ccc(F)cc2)cc1 (stereo not given),inactive: 18.6%
19,COc1ccc(NC(=O)CO/N=C2\CCCc3nonc32)cc1,inactive: 9.46%
20,COc1ccc(NC(=O)Nc2ccc(C)cc2Br)c(OC)c1,inactive: -10.3%
21,O=C(CSc1nnc(-c2ccccn2)n1Cc1ccccc1)N1CCOCC1,inactive: -5.83%
22,CCc1nc2c(OCc3ccc(OC(F)F)cc3)cccn2c1N(C)C(=O)c1ccc(OC)cc1,inactive: -7.66%

row,Structure (SMILES),growth rescue (activation)
1,CC(Nc1nc(-c2ccccc2O)nc2ccccc12)c1ccccc1 (stereo not given),inactive: 3.07%
2,O=C(Cc1ccc2c(c1)OCO2)NN=Cc1ccc([N+](=O)[O-])o1,inactive: 4.48%
3,FC(F)(F)c1cccc(Cc2noc(CN3CCC(N4CCCCC4)CC3)n2)c1,inactive: 14.2%
4,O=C(CNC(=O)C1CC1)Nc1ccc(F)c(F)c1F,inactive: 2.9%
5,C=CCNc1ncnc2c1[nH]c1ccccc12,inactive: 7.81%
6,O=[N+]([O-])c1ccc2c(c1)C=C1CCCCC1(N1CCCCC1)O2 (stereo not given),inactive: 17.5%
7,Cc1ccccc1NC(=O)c1sc(NC(=O)COc2ccccc2)c(C#N)c1C,inactive: 7.42%
8,CC(C)Oc1cc(NC(=O)CS(=O)CC(=O)N(C)C)c(Cl)cc1Cl (stereo not given),inactive: -10.3%
9,CCc1nc2ccc(C(=O)NCCOc3ccc(OC)cc3)cn2c1N(CC)Cc1ccc(OC)c(OC)c1,inactive: -3.56%
10,COc1ccc(NC(=O)CCN2C(=O)C3CC=CCC3C2=O)cc1S(=O)(=O)N1CCCCC1 (stereo not given),inactive: 0.421%
11,Cc1ccc(C(=O)N2CCc3ccccc32)cc1[N+](=O)[O-],inactive: 7.32%
12,COc1ccc(NC2CCCN(C(=O)CCc3scnc3C)C2)cc1 (stereo not given),inactive: -3.15%
13,O=C(CCCNC(=O)c1ccc(Cl)cc1)NCc1ccccc1F,inactive: 15.6%
14,CCc1nnc(NC(=O)c2ccc(S(=O)(=O)N3CCc4ccccc4C3)cc2)s1,inactive: 7.84%
15,CCOc1ccc(S(=O)(=O)N2CCCC(C(=O)NCc3ccccn3)C2)cc1C (stereo not given),inactive: -5.67%
16,Cc1ccc(-c2nc(N)n(S(C)(=O)=O)n2)cc1,inactive: 5.48%
17,CCOC(=O)c1cnc2c(-c3cccc(Br)c3)cnn2c1C,inactive: -9.87%
18,O=C(Nc1cccc(NC(=O)c2cccs2)c1)c1ccc([N+](=O)[O-])o1,inactive: 29.5%
19,NC(c1csc(NC(=O)Nc2ccccc2Cl)n1)C1CCCCC1 (stereo not given),inactive: -4.26%
20,COc1ccc(OC)c(CCNC(=O)c2ccc(CS(=O)(=O)c3ccc(Br)cc3)o2)c1,inactive: 3.84%
21,COc1ccc(SN=C2C(C)=CC(=O)C=C2C)cc1,inactive: 21.9%
22,CC1(C(=O)NC2CCN(Cc3ccccc3)CC2)CCN1CCc1ccccc1 (stereo not given),inactive: -2.93%

row,Structure (SMILES),growth rescue (activation)
1,N#Cc1c2n(c(=S)n(-c3ccccc3)c1=O)CCCCC2,inactive: -0.403%
2,CC(C)(C)C(=O)NC1(C(F)(F)F)NC(=O)N(CCc2ccccc2)C1=O (stereo not given),inactive: 5.93%
3,Cc1ccc(S(=O)(=O)N2CCN(C(=O)CCC(=O)N3CCc4ccccc43)CC2)cc1,inactive: 13.7%
4,CCCn1c(-c2ccc[nH]c2=O)nc2cc(C)c(C)cc21,inactive: 6.48%
5,CCC(C)NC(=O)CO/N=C/c1ccccc1OC(F)F (stereo not given),inactive: 6.14%
6,O=C(N/N=C/c1ccccc1O)c1cc[n+]([O-])cc1,inactive: -21.9%
7,c1ccc(-n2cc(CN3CCC(N4CCOCC4)CC3)c(-c3ccc4c(c3)OCO4)n2)cc1,inactive: -12.9%
8,Cc1ccc2c(c1)N(CC(=O)N1CCOCC1)C(=O)CO2,inactive: 13.4%
9,Nc1ccc(C(=O)OCc2ccncc2)cc1[N+](=O)[O-],inactive: 10.7%
10,CCN(CC(=O)NCc1ccc(F)cc1)C(=O)c1cccnc1SC,inactive: -14.3%
11,COc1ccc(OC)c(C2=C/C(=C/c3ccccn3)C(=O)O2)c1,inactive: -14.5%
12,O=C(CCC1CCCCC1)NCc1cccs1,inactive: 22.2%
13,Cc1cc(C(=O)NN=C2CC(=O)CC(C)(C)C2)c(C)o1,inactive: 14.9%
14,Cc1cccc(C2c3[nH]c4ccccc4c3CCN2C(=O)CN2CCOC2=O)n1 (stereo not given),inactive: 7.05%
15,COC(=O)c1sc(N)c(C(=O)OC)c1Cn1ncc(Cl)c(Cl)c1=O,inactive: 10.4%
16,CC(C)c1ccccc1NS(=O)(=O)N(C)C,inactive: 0.795%
17,Cc1ccccc1C1c2[nH]c3ccccc3c2CCN1CCCn1cccn1 (stereo not given),inactive: -16.5%
18,O=C(CNS(=O)(=O)c1cccs1)NCc1ccc(F)cc1,inactive: 11.1%
19,CC1=NNC(=O)C1CCC(=O)N/N=C\c1cccc(Cl)c1 (stereo not given),inactive: 11.2%
20,COc1ccc(C(=O)N2c3ccc(C)cc3C(C)(c3ccccc3)CC2(C)C)cc1 (stereo not given),inactive: 5.34%
21,C=CCn1c(SCC(=O)Nc2nc3ccccc3s2)nc(O)c(CC)c1=O,inactive: -4.91%
22,Cc1c(CC(=O)NCCCC(=O)O)c(=O)oc2cc3occ(-c4ccccc4)c3cc12,inactive: -14.5%

row,Structure (SMILES),growth rescue (activation)
1,C=CCNC(=O)c1cc(Cl)ccc1[N+](=O)[O-],inactive: 21.3%
2,CC(C)c1ccc(OCC(O)CN2CCN(c3ccc(F)cc3)CC2)cc1 (stereo not given),inactive: 12.1%
3,Cc1ccc(-c2noc(CN(C)C(=O)c3ccoc3C)n2)cc1,inactive: 18.2%
4,O=C(Nc1cc(Br)ccc1O)c1cnn2c(C(F)F)cc(C3CC3)nc12,inactive: 15%
5,COC(=O)N/N=C/c1cc(C)n(-c2ccc(F)cc2)c1C,inactive: -4.78%
6,O=[N+]([O-])c1ccc(N2CCOCC2)c(S(=O)(=O)N2CCOCC2)c1,inactive: -7.31%
7,CC(C)c1ccc(C(=O)NC(=S)Nc2ccc3[nH]c(=O)[nH]c3c2)cc1,inactive: 8.17%
8,CCc1cccc2c(C(=O)C(NC(C)CC)c3ccccc3)c[nH]c12 (stereo not given),inactive: 14.8%
9,O=C(COC(=O)c1ccc(F)c(S(=O)(=O)N2CCCCC2)c1)NCc1ccc(F)cc1,inactive: 15.5%
10,CCN(CC)C(=O)CSc1nc(-c2ccccc2)ccc1C#N,inactive: 7.15%
11,Cc1ccc(S(=O)(=O)NCC(=O)OCc2nnc(-c3ccccc3)o2)cc1C,inactive: 12.8%
12,CCOC(=O)c1cnc(N2CCN(C(=O)OCC)CC2)[nH]c1=O,inactive: 0.745%
13,CCCN1C(=O)/C(=C/c2nc3ccccc3c(=O)[nH]2)c2cc(C)ccc21,inactive: -3.85%
14,O=C(NC(=S)Nc1ccccn1)c1cccc([N+](=O)[O-])c1,inactive: 13.9%
15,Cc1cccc2sc(N(CCCN(C)C)C(=O)COc3ccccc3)nc12,inactive: 0.605%
16,Cc1nc(NC(=O)/C=C/c2ccccc2)sc1C(=O)Nc1cccc(Cl)c1,inactive: 4.07%
17,COc1cccc(CNC(=O)N2CCN(S(=O)(=O)c3ccc(Cl)cc3)CC2)c1,inactive: 2.47%
18,CC(C)CC(=O)Nc1ccc(-c2nnn(CC(=O)NCc3ccco3)n2)cc1,inactive: -7.27%
19,Cc1cc(NC(=O)CCC(=O)N(c2ccc(F)cc2)C(C(=O)NC2CCCC2)c2ccncc2)no1 (stereo not given),inactive: 23.3%
20,CC(C)CCNC(=O)c1cc([N+](=O)[O-])ccc1N1CCOCC1,inactive: -19.7%
21,CCc1ccccc1NC(=O)c1cc(-c2cccs2)on1,inactive: 11.8%
22,COc1ccc(N2CCN(C(C)C(=O)N(C)Cc3ccccc3)CC2)cc1 (stereo not given),inactive: -11.8%
